The campaign covered roughly 360,000 compounds. About 17,000 (4.7%) were called active. The inconclusive results got no clear call from the source; some entries with a clear call stand among them for comparison. Cut-off read from the data, not from the text of the source: active = activity change below about -50%; inconclusive = mostly about -30% to -49%; inactive = weaker than that. Where a SMILES comes first, the peptide text is derived from it. [ ]: non-standard residue; d: D form. The star is where a group is joined. ξ: configuration not given here. Boc = CC(C)(C)OC(=O)*; NHBn = c1ccc(CN*)cc1; ξV = CC(C)C(N)C(=O)O
Test: qHTS for Inhibitors of Inflammasome Signaling: IL-1-beta AlphaLISA Primary Screen
Conditions: THP-1 LPS/ATP IL-1B secretion, 16 h; at 57.5 µM, stronger effect = lower value
Method in brief: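 THP-1 cells pretreated 1 hr with compounds (up to 57.5 uM final), then stimulated with LPS (250 ng/mL final) plus ATP (1.25 mM final); secreted IL-1B measured by AlphaLISA after 16 hr, decreased signal indicating inhibition.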
% is set by controls: 0 for no effect and ±100 for the full control effect.

Activity change, inconclusive:
CCCCN1C(=O)C(CC(=O)NC(c2ccccc2)c2ccccc2)CC(C(=O)N(CC)CC)=C1C (stereo not drawn) -30.4%, Cc1nc(C)c(-c2csc(NCCc3ccccc3)n2)s1 -42.8%, COc1ccc(-n2c(SCC#N)nnc2-c2ccc(NS(=O)(=O)c3ccc(C)cc3)cc2)cc1 -42.7%, Cc1ccccc1-c1ccc(CN2C(C)C(=O)N(Cc3cn(Cc4ccco4)nn3)CCS2(=O)=O)cc1 (stereo not drawn) -47.5%, O=C(CSc1nc2ccccc2c(=O)n1NC(=O)Cc1ccccc1)NCc1ccccc1Cl -37.9%, O=c1oc2ccccc2cc1-c1ccc(O)cc1 -32.3%, COc1ccc(C2CC(c3cccc(OC)c3)=NN2c2ccc(S(N)(=O)=O)cc2)cc1 (stereo not drawn) -32.5%, Oc1ccccc1C1CC(c2cccs2)=NC(c2ccc(Cl)cc2)N1 (stereo not drawn) -37.5%, CCC/C=C/c1ccc(CN2C(C)C(=O)N(Cc3cn(Cc4ccco4)nn3)CCS2(=O)=O)cc1 (stereo not drawn) -37.6%, CC(C)C(NC(=O)CNC(=O)OC(C)(C)C)C(=O)NCc1ccccc1 (stereo not drawn) (Boc-Gly-[ξV]-NHBn) -34%, O=C(Oc1ccnc2cc(Cl)ccc12)N1CCCCCC1 -45.4%, O=C(Nc1ccc(CN2CCCCC2)cc1)Nc1ccccc1Cl -31.3%, COC(=O)/C=C/CSC1=N/C(=C/c2ccc(-n3cncn3)cc2)C(=O)N1 -42.2%, COc1ccc(-c2cc(-c3ccccc3)nc(N)n2)c(O)c1 -31.6%, CC(C)(C)C(=O)Nc1cc(NC(=O)C(C)(C)C)cc(C(=O)NNC(=O)c2ccncc2)c1 -46%, COc1ccccc1C(c1nnnn1C1CCCC1)N1CCN2CCCC2C1 (stereo not drawn) -34%, O=C(NCCCNC(=O)c1ccc(-c2cccc(Cl)c2)o1)c1cnccn1 -38.4%, COC(=O)[C@]1(Cc2ccccc2)N[C@H](c2ccc(-c3ccc(F)cc3)cc2)[C@@H]2C(=O)N(C)C(=O)[C@@H]21 -41.1%, CCn1c(C(=O)N2CCCC(C(=O)NCCCc3ccccc3)C2)cc2sccc21 (stereo not drawn) -44.5%, O=C(NCCNc1ccc([N+](=O)[O-])cc1C(F)(F)F)c1ccccc1F -40.2%, COc1ccc2c(c1OC)C(=O)N(c1cccc(NC(C)=O)c1)C2 -31.7%, O=C(Cn1nc(Cl)nc1Cl)c1ccc2c(c1)OCCO2 -35.7%, O=C(c1cc(F)ccc1F)C1CCCN(Cc2cccn2-c2ccccn2)C1 (stereo not drawn) -31.5%, COc1ccc(-c2cc(C(=O)Nc3cccc(S(=O)(=O)NCc4ccco4)c3)c3ccccc3n2)cc1OC -37.2%, COc1ccc(-c2cnc3c(NC(C)=O)cc(-c4ccsc4)cn23)cc1OC -49.1%, Cc1ccccc1C(=O)N1CCC(C(=O)N(CC(C)C)c2c(N)n(CC(C)C)c(=O)[nH]c2=O)CC1 -30.2%, Cc1ccc(C(=O)N2CCCC(CCC(=O)N3CCN(c4ccccn4)CC3)C2)cc1 (stereo not drawn) -37.3%, O=C(/C=C/c1ccccc1)Nc1cccnc1Oc1ccccc1F -42.9%, O=C(CN1CCN(C2CCCCC2)CC1)Nc1ccccc1N1CCCCC1 -48.4%, Cc1ccc(C(=O)Nc2ccc3ccccc3n2)cc1 -41.6%, CCOC(=O)c1c(C)[nH]c(C(=O)COC(=O)C2(C)CC2(Cl)Cl)c1C (stereo not drawn) -30.4%, Cc1ccc(O)c(-c2cc(C(=O)NCc3ccc4c(c3)OCO4)[nH]n2)c1 -30.4%, COC(=O)c1c(-c2ccncc2)csc1NC(=O)c1ccoc1C -33.9%, CCc1nnc(NC(=O)c2ccc(-c3ccc(C(C)=O)cc3)o2)s1 -40.8%, Cc1oc(-c2ccc(Cl)cc2)cc1C(=O)NC1CCN(Cc2ccccc2)CC1 -41.2%, CCCC(=O)N1CCc2cc(OC)c(OC)cc2C1c1cc2cc3c(cc2[nH]c1=O)OCO3 (stereo not drawn) -30.9%, Cc1nnnn1/C(=C\c1ccccc1)C(=O)OCC(=O)N(C)C1CCS(=O)(=O)C1 (stereo not drawn) -42.8%, COC(=O)c1ccc(Cn2c(O)c(N=NC(N)=S)c3ccccc32)o1 -32.7%, O=C(CSC1=NCCS1)NC1CCCC1 -43.3%, Cc1ccc(NC(=O)c2nc[nH]c2C(=O)NCCN(CCNC(=O)c2[nH]cnc2C(=O)Nc2ccc(C)cc2)CCNC(=O)c2[nH]cnc2C(=O)Nc2ccc(C)cc2)cc1 -37.9%, COc1ccc(CCNC(=O)Nc2nc(C(N)COCc3ccccc3)cs2)cc1OC (stereo not drawn) -33.7%, COc1cc2nc(/C=C/c3ccc(N(C)C)cc3)sc2cc1SC -30.9%, COc1ccc(C2CC3(CC(C)(C)NC(SC)=N3)Oc3cc(O)cc(C)c32)cc1 (stereo not drawn) -47.2%

Activity change, inactive:
Clc1ccc(-c2nc(/C=N/N3CCOCC3)c3ccccn23)cc1 -25.9%, CC(Oc1ccc(Br)cc1)C(=O)NNC(=O)CCN1CCN(c2ccccc2)CC1 (stereo not drawn) -28.6%, COc1cc(C(=O)NNC(=O)COc2ccc(Cl)cc2)ccc1OCC(=O)N1CCOCC1 10.6%, Cc1ccc(NC(=O)C(c2ccccc2)N2CCN(C(=O)c3ccco3)CC2)cc1 (stereo not drawn) 16.1%, CCCc1nc2ccc(Cl)cn2c1Cc1ccccc1 20.9%, CC(C)N(c1ccccc1)c1ccc(NC(=O)[C@@H]2O[C@H](CO)[C@H](O)[C@H](O)[C@H]2O)cc1 21.8%, CC(C)(CNC(=O)c1cccc(S(=O)(=O)Nc2ccc(SC(F)F)cc2)c1)N1CCOCC1 35.8%, Cc1ccsc1C(=O)N1CCC1(C)C(=O)NS(=O)(=O)c1ccc(C#N)cc1 (stereo not drawn) -1.28%, COc1ccc(CN2C(=O)CN(C3CCCCCC3)C(=O)C2c2ccc(OC)c(OC)c2)cc1 (stereo not drawn) -13.7%, CCCNC(=O)C/C(C)=N/NC(=O)COc1ccc(C)cc1Br 18.2%, Cc1nc2ccccc2c(=O)n1/N=C/c1c(O)ccc2ccccc12 56.8%, COc1cccc(CNC(=O)CCC2CCCN(C(=O)c3ccccc3N(C)C)C2)c1 (stereo not drawn) 1.01%, CC(C)N(Cc1ccccc1)C(=O)CN1C(=O)COc2ccc(S(=O)(=O)N3CCCCCC3)cc21 -21.3%, COc1cc(C=C(C#N)C(=O)c2ccccc2)cc(OC)c1OC 0%, COc1ccc(OC)c(NC(=O)C2CCCC2)c1 -12.7%, Cc1cccc(C(C)C)c1NC(=O)C(C)OC(=O)Cc1n[nH]c(=O)c2ccccc12 (stereo not drawn) 3.42%, Cc1ccccc1OC(=O)c1cccc(S(=O)(=O)N2CCN(C)CC2)c1 11.5%, Cc1cc(C)n(CC(=O)O)n1 -0.383%, COc1ccc(NC(=O)CSc2nncn2C)c([N+](=O)[O-])c1 -0.631%, CCNc1nc(OCCNS(=O)(=O)c2cc(C)ccc2C)nc(N(C)C)n1 24.8%, COCCCNC(=O)CSc1nc2cc(C(=O)NCCOC)ccc2c(=O)n1Cc1ccc2c(c1)OCO2 -17.3%, CCCn1c(SCC(=O)Nc2nc3ccccc3s2)nc2c1c(=O)n(C)c(=O)n2C 0%, CCC(C)(C)c1ccc(OCCCC[n+]2ccccc2)c(C(C)(C)CC)c1 -14.2%, COc1ccc(-c2csc3ncnc(N4CCN(c5ccccc5)CC4)c23)cc1 -22.1%

Activity change, active:
OC(CNCCc1ccc(C(F)(F)F)cc1)COc1ccc2ccccc2c1 (stereo not drawn) -101%, CC1=C(C(=O)OCc2ccccc2)C(c2cccs2)N2C(=O)CCSC2=N1 (stereo not drawn) -56.4%, CC1CCC(C(C)C)C(OC(=O)Cn2c(-c3ccc(Cl)cc3)[n+](C)c3ccccc32)C1 (stereo not drawn) -90.7%, Cn1c(/C(C#N)=C/C2CC=CCC2)nc2ccccc21 (stereo not drawn) -96.2%, COC(=O)c1ccc(Cn2cnc3c(Cl)ncnc32)cc1 -93.7%, CCN1CCN(c2ccc(S(=O)(=O)N3CCCCC3)cc2NC(=O)/C=C/c2ccc(Cl)cc2)CC1 -93.4%, O=C(Nc1ccccc1C(=O)Nc1nnc(C(F)(F)F)s1)c1ccccc1Cl -73.4%, CN1/C(=C/c2cc[n+](C)c3ccccc23)C=Cc2ccccc21 -96.9%, Clc1ccc(Nc2ncnc3c2cnn3-c2ccccc2)cc1 -53.2%, COc1ccccc1N1CCN(C(=O)c2sc3nc(C)nc(N4CCN(c5ccccn5)CC4)c3c2C)CC1 -73%, CCOC(=O)[C@]12CCC=C1N(Cc1ccc(Cl)cc1Cl)C(=O)[C@H](CC(=O)NCc1ccccc1)C2 -63.5%, Nc1ccc2cc3[nH]c4cc(N)ccc4c3nc2c1 -109%, CC(C)C(=O)N1CCN(c2ccc(NC(=O)COc3ccccc3[N+](=O)[O-])cc2)CC1 -90.2%, CCCCN1C(=N)N([C@@H](C)CN2CCC[C@H]2CN2C(N)=NC[C@H]2CC(C)C)C[C@H]1Cc1ccccc1 -54.5%, COc1ccc(C(=O)Nc2ccncc2)cc1[N+](=O)[O-] -79%, CC(C)Oc1ccc(CN2CCCC(CO)(Cc3ccc(F)cc3)C2)cc1 (stereo not drawn) -71.8%

— PubChem BioAssay AID743279 (National Center for Advancing Translational Sciences (NCATS), 2014)
